# In the BET-seq Pho4 binding data (Le et al. 2018):
# The other results are listed elsewhere or left out. Values were computed here from the reads of four pooled replicates and scatter widely.
# Molecular target: T1, Pho4 (S. cerevisiae) (UniProt P07270)
# T1 sequence: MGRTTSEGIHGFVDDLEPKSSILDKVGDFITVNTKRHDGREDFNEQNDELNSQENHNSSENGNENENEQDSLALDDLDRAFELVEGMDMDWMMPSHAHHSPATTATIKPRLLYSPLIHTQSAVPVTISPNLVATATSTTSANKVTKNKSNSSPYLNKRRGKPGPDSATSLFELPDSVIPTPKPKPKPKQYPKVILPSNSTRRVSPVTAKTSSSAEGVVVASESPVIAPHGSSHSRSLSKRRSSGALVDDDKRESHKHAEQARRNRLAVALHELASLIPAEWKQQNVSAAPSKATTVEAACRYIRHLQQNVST
# Experiment: relative binding free energy (BET-seq); higher = weaker binding
# Conditions: reference: library average
row,Sequence,relative binding free energy
1,GGCGTCACGTGGGTCA,0.13 kcal/mol
2,TTGGGCACGTGAGCTA,0.1 kcal/mol
3,AATTCCACGTGTTTGT,-0.06 kcal/mol
4,TATTTCACGTGGCAAG,0.24 kcal/mol
5,GGGGGCACGTGCATAG,-0.14 kcal/mol
6,TTGATCACGTGCTAGT,0.03 kcal/mol
7,ATGTTCACGTGGATTT,0.15 kcal/mol
8,TAGTTCACGTGGTGGG,0.29 kcal/mol
9,TAAATCACGTGGTAGG,0.11 kcal/mol
10,GTGAGCACGTGACGGT,0.06 kcal/mol
11,CGTTTCACGTGAAGTT,0.46 kcal/mol
12,TTCTTCACGTGGTCAT,0.31 kcal/mol
13,TGTGACACGTGTGGGT,0.04 kcal/mol
14,GTAAGCACGTGGTTAG,-0.28 kcal/mol
15,AGAATCACGTGGGCAT,0.15 kcal/mol
16,GTTTCCACGTGAGGAG,0.35 kcal/mol
17,TGGGTCACGTGAAGTA,0.37 kcal/mol
18,AATTTCACGTGTGCTG,0.43 kcal/mol
19,GGATACACGTGATAGT,0.18 kcal/mol
20,TGGGGCACGTGAATGG,0.22 kcal/mol
21,AATCGCACGTGGCTGG,-0.09 kcal/mol
22,GTGGGCACGTGTGTTG,-0.04 kcal/mol
23,AAGTACACGTGAGGAT,0.34 kcal/mol

row,Sequence,relative binding free energy
1,TTGGCCACGTGGCAGG,-0.12 kcal/mol
2,TTTATCACGTGAAAGT,0.33 kcal/mol
3,GTACGCACGTGAGGGG,0.16 kcal/mol
4,TGAGACACGTGTTGGT,0.03 kcal/mol
5,GTATTCACGTGCTGTC,0.27 kcal/mol
6,ATAGGCACGTGTATGC,-0.09 kcal/mol
7,GATGTCACGTGATGTT,0.3 kcal/mol
8,AAGGTCACGTGGGGAG,0.07 kcal/mol
9,TGCGGCACGTGCGGGA,-0.14 kcal/mol
10,TATGTCACGTGGTTCA,0.1 kcal/mol
11,TTTAGCACGTGCGAAG,0.01 kcal/mol
12,CGATTCACGTGTTCGT,0.31 kcal/mol
13,ACTGGCACGTGGAGTA,-0.14 kcal/mol
14,CAGGGCACGTGGGGGA,-0.25 kcal/mol
15,GTACGCACGTGTGGCG,0.01 kcal/mol
16,ATTTGCACGTGAGAGT,0.26 kcal/mol
17,TCGGGCACGTGCTTAT,-0.01 kcal/mol
18,AGGAGCACGTGGGCAG,-0.26 kcal/mol
19,TAATTCACGTGTTGAT,0.09 kcal/mol
20,TGCAACACGTGTGGTT,0.07 kcal/mol
21,TTTGTCACGTGTGCAC,-0.04 kcal/mol
22,TGTTTCACGTGGCATG,0.16 kcal/mol
23,TAAGGCACGTGAGTGG,0.09 kcal/mol

row,Sequence,relative binding free energy
1,GGCTTCACGTGATAGG,0.43 kcal/mol
2,GCTGTCACGTGAGGGG,0.38 kcal/mol
3,TGGCGCACGTGGAGCT,-0.11 kcal/mol
4,GAAGGCACGTGGTGTG,-0.22 kcal/mol
5,GGCAACACGTGGTATA,0.18 kcal/mol
6,GTGAGCACGTGCGTTG,-0.11 kcal/mol
7,GGGAGCACGTGTCTTT,0.1 kcal/mol
8,GTAGTCACGTGAGGCT,0.35 kcal/mol
9,GATGGCACGTGGACGG,-0.09 kcal/mol
10,AGTCTCACGTGGAGGA,0.13 kcal/mol
11,TAAGTCACGTGGTTAG,0.04 kcal/mol
12,TGGTGCACGTGTAGCA,-0.03 kcal/mol
13,TGCCTCACGTGCTGGT,0.16 kcal/mol
14,CGGAACACGTGAATGT,0.42 kcal/mol
15,CTAAGCACGTGGCGGG,-0.17 kcal/mol
16,AGGAGCACGTGTGTTC,0.03 kcal/mol
17,TAGATCACGTGAGTCA,0.35 kcal/mol
18,GGTAACACGTGAGGGT,0.32 kcal/mol
19,TGCAGCACGTGAGGGT,0.11 kcal/mol
20,TGGAGCACGTGGGAAA,0.13 kcal/mol
21,TGGGACACGTGACATT,0.28 kcal/mol
22,AGTCTCACGTGTTATA,0.18 kcal/mol
23,CTAGGCACGTGAGCGG,0.08 kcal/mol

row,Sequence,relative binding free energy
1,TGATTCACGTGCTTTA,0.21 kcal/mol
2,TATGTCACGTGTGTTT,0.15 kcal/mol
3,TTGTGCACGTGGGTGG,-0.03 kcal/mol
4,CGTAACACGTGGGGAT,0 kcal/mol
5,ATAGTCACGTGCTGTG,0.03 kcal/mol
6,TATGGCACGTGGTGTT,-0.29 kcal/mol
7,TTATTCACGTGTCGAA,0.19 kcal/mol
8,TGGAGCACGTGATTTA,0.08 kcal/mol
9,TATGTCACGTGTGCGA,-0.13 kcal/mol
10,AGGGCCACGTGAAGTG,0.11 kcal/mol
11,ATGGCCACGTGTTGGG,-0.02 kcal/mol
12,GGAGGCACGTGGGGTG,-0.24 kcal/mol
13,GAAGTCACGTGGTGTA,0.08 kcal/mol
14,TCTGTCACGTGAGGGC,0.18 kcal/mol
15,TGTTCCACGTGGGGTA,-0.11 kcal/mol
16,AGGTGCACGTGTCATT,-0.01 kcal/mol
17,CTATACACGTGTGGTT,0.19 kcal/mol
18,GGAGTCACGTGGCTAG,0.14 kcal/mol
19,GAAAGCACGTGGTGAG,-0.14 kcal/mol
20,TTGGACACGTGGATTC,0.11 kcal/mol
21,ATAGGCACGTGATGTA,-0.04 kcal/mol
22,GATTTCACGTGAGTCT,0.51 kcal/mol
23,GGATTCACGTGCGAGG,0.28 kcal/mol

row,Sequence,relative binding free energy
1,GGTAGCACGTGGGTCC,-0.23 kcal/mol
2,GTCAGCACGTGTGCGT,-0.02 kcal/mol
3,TCTGCCACGTGGGGCG,-0.18 kcal/mol
4,TTGATCACGTGTTGCG,0 kcal/mol
5,TGGGGCACGTGTCAGG,-0.09 kcal/mol
6,AAGAGCACGTGGGGGC,-0.19 kcal/mol
7,ATTAGCACGTGCAAGT,-0.02 kcal/mol
8,CGTGTCACGTGAGGTC,0.23 kcal/mol
9,TGTATCACGTGAAGGC,0.41 kcal/mol
10,ATTTACACGTGGAATT,0.22 kcal/mol
11,ATGATCACGTGAAGAT,0.27 kcal/mol
12,GTGAACACGTGGGGTG,-0.09 kcal/mol
13,TAGTGCACGTGGGTGA,-0.23 kcal/mol
14,TGGGGCACGTGACATA,0 kcal/mol
15,TTTAACACGTGTCGGG,0.04 kcal/mol
16,CTTAGCACGTGTTGTT,-0.05 kcal/mol
17,TGTTTCACGTGTTCTG,0.29 kcal/mol
18,ATATGCACGTGTTGAG,-0.05 kcal/mol
19,TTGGACACGTGTCCGG,0.08 kcal/mol
20,TGCTCCACGTGTGTCT,0.31 kcal/mol
21,GGAGTCACGTGCTGTT,-0.02 kcal/mol
22,TTGTACACGTGGGGCC,-0.21 kcal/mol
23,TTGTGCACGTGGGCCG,-0.17 kcal/mol
